± gives the standard deviation of the averaged measurements. This is one part of the list.

The subject of the experiment is PfAP2-EXP AP2 domain (GST-tagged). The experiment is described as follows: gcPBM binding intensity (ln(normalized median fluorescence intensity)); higher = stronger DNA binding. In a few lines: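 DNA-binding domains from P. falciparum, fused to GST and produced in E. coli, were put on an Agilent 4 × 180k double-stranded probe array for 1 h in 1× PBS holding 1% milk, 0.2 mg/ml BSA, 0.5% salmon testes DNA and 0.03% Triton X-100. Probes were primer-extended, 36 bp long and drawn from intergenic genomic regions, with negative controls included. After Alexa488 anti-GST antibody detection and a 488 nm scan, binding intensity was set as the highest Masliner-normalised natural-log median intensity across replicate spots of either probe orientation.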
For “TAAGGGATATGTATATGTACATACAAATATATATAA [XGTACX_site2892]”, the “gcPBM binding intensity (ln)” value is 8.62 ± 0.38.
The same measure for “TGTAGATTTTGTAACACACACATATAAATACAGATA [CACACA_site5343]”: 8.65 ± 0.49; for “AATTTCATTTTTAGAAGTACATTTATATTAAAAATC [XGTACX_site2888]”: 8.25 ± 0.28.
On to “AAATGTAATAAATATACACACACAAATATATATATA [CACACA_site8754]”, for which the “gcPBM binding intensity (ln)” value came out at 9.65 ± 0.31.
With “TTTGCTTCGATATATTCACACATTTTTTTTCTTATT [CACACA_site4499]”, the “gcPBM binding intensity (ln)” value was 8.91 ± 0.42.
Take “CATATAATTATTTTCACACATATAACTACATCTATA [CACACA_site5915]”: the “gcPBM binding intensity (ln)” value stood at 8.64 ± 0.53.
As to “TAGCCAAAAGGATATGCACACACACCCACATATATA [CACACA_site8684]”, the “gcPBM binding intensity (ln)” value came to 8.52 ± 0.39.
“TAAGATCCTTAAAACGCATGCAGTATTTTTATTTCT [TGCATGCA_site532]”: the “gcPBM binding intensity (ln)” value came to 9.375 ± 0.021.
For the sequence “CTTTTACGTTTAGGATGTACATTTAAAAAAAAAGAA [XGTACX_site8032]”, the “gcPBM binding intensity (ln)” value was determined as 8.71 ± 0.4.
Take “ATATAAATAAAAAAAAGTACATAATATATAAAAATA [XGTACX_site3065]”: the “gcPBM binding intensity (ln)” value amounted to 8.72 ± 0.33.
As for “TTAAGATGCATAAATACATGCAAAGTAAATAATTCT [TGCATGCA_site517]”, the “gcPBM binding intensity (ln)” value worked out at 8.72 ± 0.32.
For the sequence “AATAAATATTAAATGACAAAAAAAAAAAAAAAAGGG [XGTACX_negctrl_site15]”, the “gcPBM binding intensity (ln)” value was determined as 8.71 ± 0.2.
With “TATAATCCATAAGAAGCACACACATATATATATATT [CACACA_site8394]”, the “gcPBM binding intensity (ln)” value was 8.6 ± 0.46.
“ATTATAAGAATTAAAAGAAACAAAATTTTAATTATA [CACACA_negctrl_site610]”: the “gcPBM binding intensity (ln)” value came out at 8.31 ± 0.46.
For “TTAGCAGGACGTTTGGTGCACGTACTGTTTTTCTTT [GTGCAC_site9856]”, the “gcPBM binding intensity (ln)” value amounted to 8.55 ± 0.23.
For “TATAATAAATGGACGGTGCGACATGACCATATGTGT [GTGCAC_site9476]” the value was 8.93 ± 0.35; for “TATTCCAAAAATGTGTGTACATAAATACAATATTAT [XGTACX_site2653]”, 8.53 ± 0.11; for “AAAAAGAAGAATAATACACACAAATTATTTTATATA [CACACA_site1919]”, 8.41 ± 0.37.
Regarding “ATAATATATATACAAACACACAATTGCGTCCACATT [CACACA_site8515]”, the “gcPBM binding intensity (ln)” value amounted to 8.94 ± 0.31.
Turning to “TTGTTAATAAAAATATTGGAAAGTTTATAAAATTTT [CACACA_negctrl_site1487]”, the “gcPBM binding intensity (ln)” value turned out to be 8.1 ± 0.43.
As to “TTATTTTCTTTTTCTTGTACACACATAATATGGATG [XGTACX_site1481]”, the “gcPBM binding intensity (ln)” value is 8.75 ± 0.47.
Take “TTATTTTTTAGTAGTACACACTTTTTGTACCTTTTA [CACACA_site4503]”: the “gcPBM binding intensity (ln)” value came out at 8.69 ± 0.3.
As to “CTTACCAAAAAACACACACACACAAAATATATAAAT [CACACA_site1870]”, the “gcPBM binding intensity (ln)” value turned out to be 8.85 ± 0.59.
Consider “GACACCCATAAATATACACACGCACAACACAAAATA [CACACA_site8944]”, for which the “gcPBM binding intensity (ln)” value was determined as 8.76 ± 0.47.
For “CTAAAAGAACATGTGTGTACTTATGTTCTCTTTTTT [XGTACX_site5983]” the value was 8.35 ± 0.47; for “AATAAAAAAAAAAAAAAAAAAAAAAAGACACTAAAA [CACACA_negctrl_site1075]”, 8.18 ± 0.6.
As to “ATTTTTTTTATGTATTATGCTTTTATATCCTTCATA [CACACA_negctrl_site1244]”, the “gcPBM binding intensity (ln)” value amounted to 9.01 ± 0.5.
Regarding “AAAGAATTTGCATATACACACAAAAAAATAAATACA [CACACA_site4373]”, the “gcPBM binding intensity (ln)” value came out at 8.49 ± 0.2.
For “ATTTCTTTTACATTTACATGCAATGCTCTATAGATA [TGCATGCA_site62]” the value was 9.23 ± 0.44; for “ATATATATATACATATGTACATATATATTTATACAT [XGTACX_site2463]”, 9.64 ± 0.33.
Regarding “TACACAGACGGACACACACACACACTAGAAAAAAAA [CACACA_site4435]”, the “gcPBM binding intensity (ln)” value is 8.49 ± 0.37.
Take “AATGCACTATTTAAAAGTACACATAAGAAAAGCATA [XGTACX_site1739]”: the “gcPBM binding intensity (ln)” value amounted to 9.2 ± 0.37.
The same measure for “GCTAAACAATAGTTTGCACACAATTTAAATATATAT [CACACA_site193]”: 8.46 ± 0.25.
For “AATATAATATAATGCACACATAAAAAAAAAAAAATC [CACACA_site1303]” the value was 8.7 ± 0.32; for “TTATATACATTAAATGAACACACATAAATAAATTAC [CACACA_site8927]”, 8.67 ± 0.38.
For “AGTATAAATATATTATGTACATATATATTATACTTA [XGTACX_site2623]” the value was 8.38 ± 0.14.
“ATTATAGACAACTCTTTTTCTAAACTATTTTATTTT [CACACA_negctrl_site1754]”: the “gcPBM binding intensity (ln)” value was determined as 8.73 ± 0.31.
For the sequence “CATAATATTTGTGAAAGTACTTATTTTACAATAGGG [XGTACX_site5004]”, the “gcPBM binding intensity (ln)” value was 8.84 ± 0.69.
For “AAAAAAAAAAAAAACACACACACACGCAGATATATA [CACACA_site6672]” the value was 8.78 ± 0.64; for “TTTATTCTCCACACCCGTACACATTTTTTTTGCATA [XGTACX_site5615]”, 9.29 ± 0.47; for “TTTCTTAAAATATAAAGTACTAAAATGAAAATATAT [XGTACX_site2173]”, 8.66 ± 0.49.
Regarding “AAATAAAGAAATATATGTACATATATATATATATAT [XGTACX_site5131]”, the “gcPBM binding intensity (ln)” value worked out at 10.4 ± 0.28.
Turning to “ATAAATAAATAAATAAATATATATATGAAATAATGT [TGCATGCA_negctrl_site12]”, the “gcPBM binding intensity (ln)” value was determined as 8.7 ± 0.42.
On to “TTTTCTATAAGATTTGCACACAACTTATTCTATTAA [CACACA_site3752]”, for which the “gcPBM binding intensity (ln)” value amounted to 8.63 ± 0.27.

Source of the values: the supplement of paper PMC11417369.
